Test results as given in article PMC4336329 (PLoS ONE, 2015).
Out of some 310,000 compounds screened, about 14,000 (4.5%) showed an effect of 50% or more. Effects have a minus sign here. The list shows a part of the results.

What follows are compounds tested against human ether-à-go-go-related gene (hERG) potassium channel (human, UniProt Q12809) (assay: primary screen, population patch clamp on CHO cells stably expressing hERG).
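Further: peak tail current of the secondary pulse compared with the same well before compound.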

Chain of human ether-à-go-go-related gene (hERG) potassium channel (Q12809 whole entry, looked up): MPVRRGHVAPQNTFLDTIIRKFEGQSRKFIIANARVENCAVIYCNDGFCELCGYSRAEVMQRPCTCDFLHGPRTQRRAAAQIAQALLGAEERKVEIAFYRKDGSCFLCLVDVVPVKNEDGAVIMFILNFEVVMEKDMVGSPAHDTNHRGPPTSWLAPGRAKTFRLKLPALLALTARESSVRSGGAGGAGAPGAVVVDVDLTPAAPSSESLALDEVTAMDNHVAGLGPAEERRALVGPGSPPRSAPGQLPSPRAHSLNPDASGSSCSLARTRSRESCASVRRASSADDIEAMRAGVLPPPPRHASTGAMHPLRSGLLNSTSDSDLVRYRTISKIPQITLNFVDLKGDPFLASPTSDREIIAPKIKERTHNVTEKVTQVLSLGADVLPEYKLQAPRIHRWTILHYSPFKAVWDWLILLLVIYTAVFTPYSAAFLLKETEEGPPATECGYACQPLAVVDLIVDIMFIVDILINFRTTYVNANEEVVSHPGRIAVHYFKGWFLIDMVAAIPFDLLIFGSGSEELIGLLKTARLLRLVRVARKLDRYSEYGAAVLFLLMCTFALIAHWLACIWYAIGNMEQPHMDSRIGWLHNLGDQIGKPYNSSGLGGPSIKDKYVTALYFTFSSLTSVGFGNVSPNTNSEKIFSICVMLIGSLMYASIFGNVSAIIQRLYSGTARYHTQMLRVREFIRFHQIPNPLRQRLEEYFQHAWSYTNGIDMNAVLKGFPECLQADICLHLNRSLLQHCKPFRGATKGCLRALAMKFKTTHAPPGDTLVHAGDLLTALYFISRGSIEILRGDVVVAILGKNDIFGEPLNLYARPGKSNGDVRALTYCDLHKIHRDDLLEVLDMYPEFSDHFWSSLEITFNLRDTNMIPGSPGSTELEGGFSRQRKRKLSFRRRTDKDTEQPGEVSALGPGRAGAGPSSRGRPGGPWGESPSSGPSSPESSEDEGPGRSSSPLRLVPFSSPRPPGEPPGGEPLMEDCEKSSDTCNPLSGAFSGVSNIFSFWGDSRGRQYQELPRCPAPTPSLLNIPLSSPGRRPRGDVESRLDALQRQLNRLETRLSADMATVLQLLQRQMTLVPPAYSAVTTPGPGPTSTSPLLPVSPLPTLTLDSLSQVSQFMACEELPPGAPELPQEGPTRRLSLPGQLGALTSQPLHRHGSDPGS

Compound | hERG current change (%, negative = inhibition) at 10uM
COc1ccc(NC(=O)CSc2ccc(C)cc2)cc1 | 9.62%
COc1ccc(NC(=S)Nc2cc(C)[nH]n2)cc1Cl | 7.38%
CN1C=CC(=CC=C2C=CC(=O)C=C2)C=C1 | 17.9%
COc1ccc(OC)c(NC(=O)CSc2nc(=O)n(CCN3CCOCC3)c3c2CCC3)c1 | -24%
Cc1cc(C)n(CCC(=O)N/N=C/c2ccc(Br)c([N+](=O)[O-])c2)n1 | -18.6%
Cc1ccc(NC(=O)CN(C)C(=O)c2ccc(Sc3nncn3C)c([N+](=O)[O-])c2)cc1 | -40.3%
COc1ccc(C(CC(=O)O)N2C(=O)CCC2=O)cc1 (stereo not shown) | 10.1%
Cc1nc(NCc2ccccc2)c2cc[nH]c2n1 | 21%
CC(C)[N+](C)(C)CC#CC(O)(c1ccccc1)c1ccccc1.[Br-] | 17.4%
COc1ccc(C(=O)NCc2cccs2)cc1S(=O)(=O)N1CCOCC1 | 12.5%
Cc1ccc[n+](C(C)C(=O)Nc2ccc(C)c([N+](=O)[O-])c2)c1.[Br-] (stereo not shown) | -11.4%
CCn1c(CCCCc2n[nH]c(=S)n2CC)n[nH]c1=S | 21.6%
O=C1Nc2ccccc2N(O)N1c1cc(-c2ccccc2)[nH]n1 | 6.76%
COc1ccc(OC)c(C2=NO[C@@](CC(=O)O)(C(=O)Nc3ccc4c(c3)OCCO4)C2)c1 | 13.8%
N/C(COc1ncn(-c2ccccc2)n1)=N\S(=O)(=O)c1ccccc1 | 7.7%
COc1ccccc1N1CCN(C(=O)c2c(-c3c(Cl)cccc3Cl)noc2C)CC1 | 2.17%
O=C(O)C(Cc1c[nH]c2ccccc12)NS(=O)(=O)c1ccc(Cl)cc1 (stereo not shown) | 22.8%
COc1ccc2cc(C(c3nnnn3CC3CCCO3)N3CCOCC3)c(=O)[nH]c2c1 (stereo not shown) | -8.78%
COc1cc(NS(=O)(=O)c2ccc(N/C=C\C(=O)c3ccc(F)cc3)cc2)nc(OC)n1 | -4.14%
CCCCNC(=O)/C(=C/c1ccccc1)NC(C)=O | 2.85%
COc1ccc(NC(=O)c2sc3nc(N4CCCC4)c4c(c3c2N)CC(C)(C)OC4)cc1 | 10.3%
Cc1ccc(CNC(=O)CC2Sc3ccccc3NC2=O)cc1 (stereo not shown) | 19.3%

Compound | hERG current change (%, negative = inhibition) at 10uM
Cc1cccc(Nc2nc3c(S(=O)(=O)c4ccccc4)nnn3c3ccccc23)c1C | 12.6%
O=C(c1cccs1)N1CCN(S(=O)(=O)c2cccs2)CC1 | -12.6%
O=C1CN(S(=O)(=O)c2ccc(Cl)cc2)c2ccccc2N1 | 4.25%
CC(Oc1ccccc1)C(=O)N1CCC2(CC1)Oc1ccc(F)cc1C(=O)C21CC(c2cccnc2)=NO1 (stereo not shown) | -20.5%
C(=N\Nc1nncn1/N=C/c1ccco1)/c1ccco1 | -8.45%
O=C(CCc1nnc2ccc(N3CCC4(CC3)OCCO4)nn12)Nc1cc(F)ccc1F | -32.6%
O=C(O)c1ccccc1C(=O)N1CCN(C(=O)c2ccccc2Cl)CC1 | 11.9%
O=C(CSc1nnc(NC(=O)c2ccco2)s1)NC1CCCC1 | 18.6%
COC(=O)Nc1ccc(S(=O)(=O)Nc2cc(C(F)(F)F)c[nH]c2=O)cc1 | 10.7%
Cc1c(C(=O)O)sc2nc3n(c(=O)c12)CCC(C)CC3 (stereo not shown) | 0.598%
CCOC(=O)N1CCN(CC(=O)Nc2ccc([N+](=O)[O-])cc2C(=O)Nc2ccccc2F)CC1 | -50.7%
CCOC(=O)Cn1c(S(=O)(=O)Cc2ccc(F)cc2)nc(-c2ccccc2)c1-c1ccccc1 | -7.15%
Cc1ccc(C(=O)N2CCN(S(=O)(=O)N3CCCCCC3)CC2)cc1 | -12.6%
COC(=O)CC1=C(C(=O)OC)C(c2cc(OC)c(OC)cc2OC)C(C#N)=C(N)O1 (stereo not shown) | -13.6%
OCCC1CN(Cc2cccc(O)c2)CCN1CCc1ccccc1 (stereo not shown) | -24.4%
O=C(NNC(=O)c1ccc(NC(=O)c2ccccc2)cc1)c1ccc(F)cc1 | 20.4%
Cc1nnc(SCC(=O)Nc2ccc3c(c2)OCCO3)n1N | 12.4%
COc1ccccc1OCc1ccc(C(=O)NCc2ccco2)o1 | -25.3%
CCN(c1ccccc1)C1(O)C(=O)c2ccccc2C1=O | 19.6%
N=C1C2=C3Sc4ccccc4N3CCCC2=NN1c1cccc(S(=O)(=O)O)c1 | 18.4%
Cc1cccnc1NC(=O)CSc1nnc(CNC(=O)c2cccc([N+](=O)[O-])c2)n1C | -5.15%
COc1ccccc1CNC(=O)C1(NC(=O)Nc2ccc(C)cc2)CCCCC1 | 30.7%

Compound | hERG current change (%, negative = inhibition) at 10uM
COc1ccc(C(=O)N=c2nc3ccccn3s2)cc1 | -1.15%
COc1ccccc1/C=N/Nc1nc(C)cc(C)n1 | 8.07%
Cn1c(SCC(=O)NCC2CCCO2)nnc1-c1c[nH]c2ccccc12 (stereo not shown) | -3.55%
O=C1C2CCCCC2C(=O)N1c1nccs1 (stereo not shown) | -15.2%
C/C(=N\NC(=O)CSCc1cccc(Br)c1)c1ccc([N+](=O)[O-])cc1 | 2.93%
CCn1c(SCC(=O)Nc2nnc(C)s2)nnc1C(C)NC(=O)c1ccccc1F (stereo not shown) | 16.5%
CC(C)(C)Oc1ncc(Br)c(OC(C)(C)C)n1 | -8.79%
Cn1c(-c2sc3ccccc3c2Cl)n[nH]c1=S | 8.39%
Cc1cccc(-c2c3c(=O)n(C)c(=O)n(C)c3cn2CC2CCCO2)c1 (stereo not shown) | 4.52%
CC(C)=CC(=O)Nc1ccc(Br)cc1 | -4.33%
COC(=O)c1ccc(NC(=O)c2ccc3c(c2)OCO3)cc1 | -3.45%
CCOC(=O)c1[nH]c2ccccc2c1NC(=O)C(CC)CC | 9.58%
Cc1ccc(-c2nn(-c3ccccc3)cc2C(=O)O)o1 | 53.1%
Cc1ccc(S(=O)(=O)NNC(=O)Nc2ccc([N+](=O)[O-])cc2)c(C)c1 | 3.83%
O=C(NC(C(=O)c1ccccc1)N1CCOCC1)c1ccccc1 (stereo not shown) | 12.7%
COc1ccc(OC)c(N2CC(O)(c3ccccc3)[N+]3=C2SCCC3)c1.[Br-] (stereo not shown) | -72.6%
COc1cc(C2NC(=O)C(C#N)=C(S)N2c2ccccc2)ccc1OC(C)C (stereo not shown) | 3.11%
NCCCNc1nc(N)c([N+](=O)[O-])c(NC2CCCCC2)n1 | 4.4%
O=C(CSCc1ccc(F)cc1)NC1CCCC1 | -3.27%
Cc1cccc(C)c1NC(=O)CN(C)C(=O)c1ccccc1Cc1ccccc1 | -7.95%
O=C(CCCC(=O)N1CCN(c2cccc(Cl)c2)CC1)c1ccccc1 | -44.2%
CC(C)C(=O)Nc1nnc(SCC(=O)NCc2ccc3c(c2)OCO3)s1 | 12.7%

Compound | hERG current change (%, negative = inhibition) at 10uM
CCOC(=O)N1CCN(S(=O)(=O)c2ccc(OCC(=O)OC)cc2)CC1 | 5.84%
O=C1CCC(C(=O)OCc2nnc(-c3ccc(Cl)cc3)o2)=NN1 | 2.93%
CCC1CCCCN1C(=O)C1CC(c2cc(Cl)c(OC)cc2OC)=NO1 (stereo not shown) | -4.45%
Cn1c(=O)cc(SCC(=O)NCCC2=CCCCC2)c2cc(Cl)ccc21 | 5.01%
COc1cc(Cl)c(C)cc1NC(=O)CSc1nc2ccccc2o1 | 18.3%
c1ccc(-c2nn[nH]n2)nc1 | 9.49%
Cc1ccc(NC(=O)CCCC2CCCCC2)c(O)c1 | 16.7%
CN(C)CCCNC(=O)c1ccc2[nH]c3ccccc3c2c1 | -20.4%
COc1cc(C2C3=C(CC(C)(C)CC3=O)OC3=C2C(=O)CC(C)(C)C3)cc([N+](=O)[O-])c1O | -1.62%
COc1ccc(OC)c2sc(N3CCN(C(=O)c4ccc5ncsc5c4)CC3)nc12 | 5.99%
COc1ccc(Br)cc1C1SCCN1S(C)(=O)=O (stereo not shown) | 1.52%
O=C(Nn1cnc2ccccc2c1=O)c1ccccc1Cl | 11.6%
O=C(COC(=O)CNC(=O)c1ccccc1)NCCNC(=O)COC(=O)CNC(=O)c1ccccc1 | -0.31%
Cc1occc1C(=O)Nc1cccc2ccccc12 | -11.4%
COc1ccc(C(=O)OCC(=O)N(C)C2CCS(=O)(=O)C2)cc1S(=O)(=O)N(C)Cc1ccccc1 (stereo not shown) | -15.7%
O=C(COC(=O)COc1ccccc1)NCCc1ccccc1 | -5.58%
CCCc1c(C(=O)N/N=C/C(C)=C/c2ccco2)nnn1-c1nonc1N | 1.19%
Cc1csc2ncnc(N3CCN(C(=S)Nc4ccc(C(F)(F)F)cc4)CC3)c12 | -16.7%
CN(C)c1nc(NCc2ccccc2)nc(N/N=C/c2ccc(Cl)cc2Cl)n1 | 26.5%
CCc1ccc(NC(=O)N2CCN(c3ccccc3)CC2)cc1 | 4.06%
Cc1noc(C)c1CSCC(=O)N(C)CC(=O)Nc1ccccc1C(F)(F)F | 8.73%
CCn1c(C)nc2cc(C(=O)NNS(=O)(=O)c3c(C)c(C)cc(C)c3C)ccc21 | -13.2%
